Source: the supplement of paper PMC4967469
IC50 is the fitted dose that halves viability relative to control wells, and lower means more sensitive; a fit beyond the top or the lowest dose is shown as a bound at that dose. AUC is the area under the same curve over the 256-fold range up to the top dose, as a fraction; the more sensitive the line, the further below 1. For some assays here: Where the top dose is marked as inferred, it was derived from the fitted curves, not read from the paper. For some assays here: Drugs with an entry number were screened twice under separate entries, and the two screens often disagree.

Experiments:
Experiment in all cases: Viability of human cancer cell lines after 72 h of drug (GDSC screen)
MG-132 = compound: CC(C)C[C@@H](C=O)NC(=O)[C@H](CC(C)C)NC(=O)[C@H](CC(C)C)NC(=O)OCc1ccccc1 [MG-132]; conditions: top dose 1 µM
Protocol: (§1)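 Human cancer cell lines in 384-well plates, medium with 10% serum, drug for 72 h over a 256-fold dose range (nine 2-fold or five 4-fold steps up to the top dose). Adherent lines were fixed and stained with the nucleic acid dye Syto60, suspension lines read with resazurin; signal relative to control wells, capped at 0 and 100%. One two-parameter sigmoid per drug and line, fitted in a mixed model over all curves with the slope shared within a line.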

GDC0941 = compound: CS(=O)(=O)N1CCN(Cc2cc3nc(-c4cccc5[nH]ncc45)nc(N4CCOCC4)c3s2)CC1 [GDC0941]; conditions: top dose 4 µM; screen: GDSC drug entry 1527; top dose inferred
Protocol: as §1

Pazopanib = compound: Cc1ccc(Nc2nccc(N(C)c3ccc4c(C)n(C)nc4c3)n2)cc1S(N)(=O)=O [Pazopanib]; conditions: top dose 8 µM
Protocol: as §1

CEP-701 = compound: C[C@]12O[C@H](C[C@]1(O)CO)n1c3ccccc3c3c4c(c5c6ccccc6n2c5c31)CNC4=O [CEP-701]; conditions: top dose 2 µM; top dose inferred
Protocol: as §1

Sunitinib = compound: CCN(CC)CCNC(=O)c1c(C)[nH]c(/C=C2\C(=O)Nc3ccc(F)cc32)c1C [Sunitinib]; conditions: top dose 8 µM
Protocol: as §1

SB 216763 = compound: Cn1cc(C2=C(c3ccc(Cl)cc3Cl)C(=O)NC2=O)c2ccccc21 [SB 216763]; conditions: top dose 10 µM; top dose inferred
Protocol: as §1

AR-42 = compound: CC(C)[C@H](C(=O)Nc1ccc(C(=O)NO)cc1)c1ccccc1 [AR-42]; conditions: top dose 5.12 µM; top dose inferred
Protocol: as §1

Question: What does the source list for TE-5 (oesophagus, adherent)?
Answer: AUC (MG-132): 0.655; IC50 (MG-132): 0.181 µM; AUC (GDC0941): 0.728; IC50 (GDC0941): 1.25 µM; AUC (Pazopanib): 0.977; IC50 (Pazopanib): > 8 µM; AUC (CEP-701): 0.841; IC50 (CEP-701): 1.71 µM; AUC (Sunitinib): 0.966; IC50 (Sunitinib): > 8 µM; AUC (SB 216763): 0.984; IC50 (SB 216763): > 10 µM; AUC (AR-42): 0.951; IC50 (AR-42): > 5.12 µM

Question: Which results are given for TE-12 (oesophagus, suspension)?
Answer: AUC (MG-132): 0.86; IC50 (MG-132): > 1 µM; AUC (GDC0941): 0.656; IC50 (GDC0941): 0.748 µM; AUC (Pazopanib): 0.873; IC50 (Pazopanib): > 8 µM; AUC (CEP-701): 0.79; IC50 (CEP-701): 1.11 µM; AUC (Sunitinib): 0.577; IC50 (Sunitinib): 0.849 µM; AUC (SB 216763): 0.976; IC50 (SB 216763): > 10 µM; AUC (AR-42): 0.982; IC50 (AR-42): > 5.12 µM

Question: For TE-15 (oesophagus, suspension), which AUC (MG-132) is on record?
Answer: 0.854

Question: What about the IC50 (MG-132) of the same cell line?
Answer: 0.959 µM

Question: And the AUC (GDC0941)?
Answer: 0.845

Question: And the IC50 (GDC0941)?
Answer: 3.46 µM

Question: And the AUC (Pazopanib)?
Answer: 0.794

Question: And the IC50 (Pazopanib)?
Answer: 4.23 µM

Question: And the AUC (CEP-701)?
Answer: 0.826

Question: And the IC50 (CEP-701)?
Answer: 1.43 µM

Question: What about the AUC (Sunitinib) of the same cell line?
Answer: 0.522

Question: What about the IC50 (Sunitinib) of the same cell line?
Answer: 0.578 µM

Question: What about the AUC (SB 216763) of the same cell line?
Answer: 0.985

Question: What about the IC50 (SB 216763) of the same cell line?
Answer: > 10 µM

Question: What about the AUC (AR-42) of the same cell line?
Answer: 0.549

Question: What about the IC50 (AR-42) of the same cell line?
Answer: 0.443 µM

Question: Which results are given for UACC-257 (melanoma, adherent)?
Answer: AUC (MG-132): 0.574; IC50 (MG-132): 0.105 µM; AUC (GDC0941): 0.892; IC50 (GDC0941): > 4 µM; AUC (Pazopanib): 0.93; IC50 (Pazopanib): > 8 µM; AUC (CEP-701): 0.771; IC50 (CEP-701): 0.961 µM; AUC (Sunitinib): 0.848; IC50 (Sunitinib): > 8 µM; AUC (SB 216763): 0.938; IC50 (SB 216763): > 10 µM; AUC (AR-42): 0.509; IC50 (AR-42): 0.34 µM

Question: What does the source list for VA-ES-BJ (soft tissue, adherent)?
Answer: AUC (MG-132): 0.727; IC50 (MG-132): 0.288 µM; AUC (GDC0941): 0.854; IC50 (GDC0941): 3.45 µM; AUC (Pazopanib): 0.86; IC50 (Pazopanib): 7.3 µM; AUC (CEP-701): 0.617; IC50 (CEP-701): 0.268 µM; AUC (Sunitinib): 0.891; IC50 (Sunitinib): > 8 µM; AUC (SB 216763): 0.927; IC50 (SB 216763): > 10 µM; AUC (AR-42): 0.81; IC50 (AR-42): 2.87 µM

Question: How did the AUC (MG-132) turn out when VCaP (prostate, adherent) was run?
Answer: 0.791

Question: What about the IC50 (MG-132) of the same cell line?
Answer: 0.466 µM

Question: What about the AUC (GDC0941) of the same cell line?
Answer: 0.841

Question: What about the IC50 (GDC0941) of the same cell line?
Answer: 2.94 µM

Question: And the AUC (Pazopanib)?
Answer: 0.976

Question: And the IC50 (Pazopanib)?
Answer: > 8 µM

Question: And the AUC (CEP-701)?
Answer: 0.712

Question: What about the IC50 (CEP-701) of the same cell line?
Answer: 0.51 µM

Question: And the AUC (Sunitinib)?
Answer: 0.962

Question: What about the IC50 (Sunitinib) of the same cell line?
Answer: > 8 µM

Question: And the AUC (SB 216763)?
Answer: 0.913

Question: What about the IC50 (SB 216763) of the same cell line?
Answer: > 10 µM

Question: And the AUC (AR-42)?
Answer: 0.298

Question: And the IC50 (AR-42)?
Answer: 0.0846 µM

Question: How did the AUC (MG-132) turn out when WSU-NHL (lymphoid neoplasm, suspension) was run?
Answer: 0.989

Question: What about the IC50 (MG-132) of the same cell line?
Answer: > 1 µM

Question: What about the AUC (GDC0941) of the same cell line?
Answer: 0.384

Question: What about the IC50 (GDC0941) of the same cell line?
Answer: 0.125 µM

Question: What about the AUC (Pazopanib) of the same cell line?
Answer: 0.985

Question: What about the IC50 (Pazopanib) of the same cell line?
Answer: > 8 µM

Question: And the AUC (CEP-701)?
Answer: 0.342

Question: And the IC50 (CEP-701)?
Answer: 0.0483 µM

Question: And the AUC (Sunitinib)?
Answer: 0.982

Question: What about the IC50 (Sunitinib) of the same cell line?
Answer: > 8 µM

Question: And the AUC (SB 216763)?
Answer: 0.98

Question: What about the IC50 (SB 216763) of the same cell line?
Answer: > 10 µM

Question: And the AUC (AR-42)?
Answer: 0.507

Question: And the IC50 (AR-42)?
Answer: 0.333 µM
